Measurements from patent publication US11685745B2, “Substituted benzoxazole and benzofuran compounds as PDE7 inhibitors” (Dart NeuroScience, LLC, priority 2017, dated 2023).

Target: N-terminal truncated recombinant human PDE7B enzyme (Homo sapiens (Human), UniProt Q9NP56)
Test: biochemical

Compound | IC50 [µM]
CC(C)N1CCN(Cc2nc3cc(Cl)c4c(c3o2)C2(CCCCC2)NC(=O)N4)CC1 [Example 93, 5-Chloro-2-{[4-(propan-2-yl)piperazin-1-yl]methyl}-7,8-dihydro-6H-spiro[[1,3]oxazolo[5,4-f]quinazoline-9,1′-cyclohexane]-7-one] | 0.1 to 1
CN(C)C1CCN(Cc2nc3cc(Cl)c4c(c3o2)C2(CCCCC2)NC(=O)N4)C1 (centres unmarked) [Example 140, 5-Chloro-2-{[3-(dimethylamino)pyrrolidin-1-yl]methyl}-7,8-dihydro-6H-spiro[[1,3]oxazolo[5,4-f]quinazoline-9,1′-cyclohexane]-7-one] | 0.1 to 1
COCCN(C)C(=O)c1nc2cc(Cl)c3c(c2o1)C1(CCCCC1)NC(=O)N3 [Example 185, 5-Chloro-N-(2-methoxyethyl)-N-methyl-7-oxo-7,8-dihydro-6H-spiro[[1,3]oxazolo[5,4-f]quinazoline-9,1′-cyclohexane]-2-carboxamide] | 0.01 to 0.1
O=C1Nc2c(Cl)cc3cc(C(=O)NC4CCC4)oc3c2C2(CCCCC2)N1 [Example 389, 5′-Chloro-N-cyclobutyl-7′-oxo-7′,8′-dihydro-6′H-spiro[cyclohexane-1,9′-furo[2,3-f]quinazoline]-2′-carboxamide] | 0.1 to 1
O=C1Nc2c(Cl)cc3nc(CNCc4ncccn4)oc3c2C2(CCCCC2)N1 [Example 60, 5-Chloro-2-{[(pyrimidin-2-ylmethyl)amino]methyl}-7,8-dihydro-6H-spiro[[1,3]oxazolo[5,4-f]quinazoline-9,1′-cyclohexane]-7-one] | 0.01 to 0.1
CN(CCO)C(=O)c1cc2cc(Cl)c3c(c2o1)C1(CCCCC1)NC(=O)N3 [Example 262, 5′-Chloro-N-(2-hydroxyethyl)-N-methyl-7′-oxo-7′,8′-dihydro-6′H-spiro[cyclohexane-1,9′-furo[2,3-f]quinazoline]-2′-carboxamide] | 0.01 to 0.1
O=C1Nc2c(Cl)cc3cc(C(=O)NCC4CCCO4)oc3c2C2(CCCCC2)N1 (centres unmarked) [Example 269, 5′-Chloro-7′-oxo-N-(oxolan-2-ylmethyl)-7′,8′-dihydro-6′H-spiro[cyclohexane-1,9′-furo[2,3-f]quinazoline]-2′-carboxamide] | 0.01 to 0.1
CN1CCN(C(=O)c2cc3cc(Cl)c4c(c3o2)C2(CCCCC2)NC(=O)N4)CC1 [Example 230, 5′-Chloro-2′-(4-methylpiperazine-1-carbonyl)-7′,8′-dihydro-6′H-spiro[cyclohexane-1,9′-furo[2,3-f]quinazoline]-7′-one] | 0.01 to 0.1
COC[C@H]1CCN(C(=O)c2nc3cc(Cl)c4c(c3o2)C2(CCCCC2)NC(=O)N4)C1 [Example 204, 5-Chloro-2-[(3S)-3-(methoxymethyl)pyrrolidine-1-carbonyl]-7,8-dihydro-6H-spiro[[1,3]oxazolo[5,4-f]quinazoline-9,1′-cyclohexane]-7-one] | 0.01 to 0.1
O=C1Nc2c(Cl)cc3nc(CN4CCN5CCC[C@H]5C4)oc3c2C2(CCCCC2)N1 [Example 157, 2-[(8aS)-Octahydropyrrolo[1,2-a]piperazin-2-ylmethyl]-5-chloro-7,8-dihydro-6H-spiro[[1,3]oxazolo[5,4-f]quinazoline-9,1′-cyclohexane]-7-one] | 0.1 to 1
CC1CCCCN1Cc1nc2cc(Cl)c3c(c2o1)C1(CCCCC1)NC(=O)N3 (centres unmarked) [Example 98, 5-Chloro-2-[(2-methylpiperidin-1-yl)methyl]-7,8-dihydro-6H-spiro[[1,3]oxazolo[5,4-f]quinazoline-9,1′-cyclohexane]-7-one] | 0.1 to 1
O=C1Nc2c(Cl)cc3nc(CNCC(=O)N4CCCCC4)oc3c2C2(CCCCC2)N1 [Example 55, 5-Chloro-2-({[2-oxo-2-(piperidin-1-yl)ethyl]amino}methyl)-7,8-dihydro-6H-spiro[[1,3]oxazolo[5,4-f]quinazoline-9,1′-cyclohexane]-7-one] | 0.01 to 0.1
O=C1Nc2c(Cl)cc3cc(C(=O)N4CCN(C5COC5)CC4)oc3c2C2(CCCCC2)N1 [Example 335, 5′-Chloro-2′-[4-(oxetan-3-yl)piperazine-1-carbonyl]-7′,8′-dihydro-6′H-spiro[cyclohexane-1,9′-furo[2,3-f]quinazoline]-7′-one] | 0.01 to 0.1
CN1CCN(C(=O)c2cc3cc(Cl)c4c(c3o2)C2(CCCCC2)NC(=O)N4)C(c2ccccc2)C1 (centres unmarked) [Example 313, 5′-Chloro-2′-(4-methyl-2-phenylpiperazine-1-carbonyl)-7′,8′-dihydro-6′H-spiro[cyclohexane-1,9′-furo[2,3-f]quinazoline]-7′-one] | 0.01 to 0.1
CN1CCC(NC(=O)c2cc3cc(Cl)c4c(c3o2)C2(CCCCC2)NC(=O)N4)CC1 [Example 253, 5′-Chloro-N-(1-methylpiperidin-4-yl)-7′-oxo-7′,8′-dihydro-6′H-spiro[cyclohexane-1,9′-furo[2,3-f]quinazoline]-2′-carboxamide] | 0.1 to 1
CN1CCC(N(C)C(=O)c2cc3cc(Cl)c4c(c3o2)C2(CCCCC2)NC(=O)N4)C1 (centres unmarked) [Example 276, 5′-Chloro-N-methyl-N-(1-methylpyrrolidin-3-yl)-7′-oxo-7′,8′-dihydro-6′H-spiro[cyclohexane-1,9′-furo[2,3-f]quinazoline]-2′-carboxamide] | 0.1 to 1
CNCc1nc2cc(Cl)c3c(c2o1)C1(CCCCC1)NC(=O)N3 [Example 35, 5-Chloro-2-[(methylamino)methyl]-7,8-dihydro-6H-spiro[[1,3]oxazolo[5,4-f]quinazoline-9,1′-cyclohexane]-7-one] | 0.01 to 0.1
O=C1Nc2c(Cl)cc3nc(CN4CCOCC4)oc3c2C2(CCCCC2)N1 [Example 33, 5-Chloro-2-(morpholin-4-ylmethyl)-7,8-dihydro-6H-spiro[[1,3]oxazolo[5,4-f]quinazoline-9,1′-cyclohexane]-7-one] | 0.1 to 1
C[C@@H]1CN(C(=O)c2cc3cc(Cl)c4c(c3o2)C2(CCCCC2)NC(=O)N4)C[C@H](C)O1 [Example 424, 5′-Chloro-2′-[(2R,6S)-2,6-dimethylmorpholine-4-carbonyl]-7′,8′-dihydro-6′H-spiro[cyclohexane-1,9′-furo[2,3-f]quinazoline]-7′-one] | 0.01 to 0.1
O=C1Nc2c(Cl)cc3cc(C(=O)NC4(C5CCOCC5)CC4)oc3c2C2(CCCCC2)N1 [Example 368, 5′-Chloro-N-[1-(oxan-4-yl)cyclopropyl]-7′-oxo-7′,8′-dihydro-6′H-spiro[cyclohexane-1,9′-furo[2,3-f]quinazoline]-2′-carboxamide] | 0.01 to 0.1
CCN1CCN(C(=O)c2nc3cc(Cl)c4c(c3o2)C2(CCCCC2)NC(=O)N4)CC1 [Example 207, 5-Chloro-2-(4-ethylpiperazine-1-carbonyl)-7,8-dihydro-6H-spiro[[1,3]oxazolo[5,4-f]quinazoline-9,1′-cyclohexane]-7-one] | 0.01 to 0.1
CCOC(=O)C1CCN(Cc2nc3cc(Cl)c4c(c3o2)C2(CCCCC2)NC(=O)N4)CC1 [Example 63, Ethyl 1-{5-chloro-7-oxo-7,8-dihydro-6H-spiro[[1,3]oxazolo[5,4-f]quinazoline-9,1′-cyclohexane]-2-ylmethyl}piperidine-4-carboxylate] | 0.1 to 1
O=C1Nc2c(Cl)cc3cc(C(=O)N4C[C@@H]5[C@H](C4)[C@H]5c4ccccn4)oc3c2C2(CCCCC2)N1 [Example 372, 5′-Chloro-2′-[(1R,5S,6S)-6-(pyridin-2-yl)-3-azabicyclo[3.1.0]hexane-3-carbonyl]-7′,8′-dihydro-6′H-spiro[cyclohexane-1,9′-furo[2,3-f]quinazoline]-7′-one] | 0.01 to 0.1
